Among all 360,000 compounds or so, about 25,000 (6.9%) were called active. Inconclusive means that the source gave no clear call. Such entries were picked first, then a sample of the others. Calls follow the shape of the dose curve; as a rule, active = well fitted inhibition curve with a large enough effect; inconclusive = small, poorly fitted or top-dose-only effect; inactive = flat fitted curve, though single readings scatter. A potency beside an inconclusive call is a rough fit, not a confirmed value.
The molecules below were run against Luciferin 4-monooxygenase (Photinus pyralis) (UniProt P08659) (assay: qHTS profiling assay for firefly luciferase inhibitor/activator using purifed enzyme and Km concentrations of substrates (counterscreen for miR-21 project)). Conditions: purified FLuc, luminescence inhibition; series mostly up to 57.5 µM.
Summary of the method: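 Purified P. pyralis luciferase (10nM final) with 10uM D-luciferin and 10uM ATP (Km levels) in 50mM Tris acetate pH 7.5, 10mM Mg acetate, 0.01% Tween-20, 0.05% BSA; qHTS 6-point titration, ~60 µM downward; luminescence read.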
Also: nearly all actives have a fitted effect of over 55% in size.
Potency is read from the fitted curve at half-maximal effect; tags tell the direction and shape of the fitted curve.

UniProt P08659, sequence (P08659 whole entry, looked up): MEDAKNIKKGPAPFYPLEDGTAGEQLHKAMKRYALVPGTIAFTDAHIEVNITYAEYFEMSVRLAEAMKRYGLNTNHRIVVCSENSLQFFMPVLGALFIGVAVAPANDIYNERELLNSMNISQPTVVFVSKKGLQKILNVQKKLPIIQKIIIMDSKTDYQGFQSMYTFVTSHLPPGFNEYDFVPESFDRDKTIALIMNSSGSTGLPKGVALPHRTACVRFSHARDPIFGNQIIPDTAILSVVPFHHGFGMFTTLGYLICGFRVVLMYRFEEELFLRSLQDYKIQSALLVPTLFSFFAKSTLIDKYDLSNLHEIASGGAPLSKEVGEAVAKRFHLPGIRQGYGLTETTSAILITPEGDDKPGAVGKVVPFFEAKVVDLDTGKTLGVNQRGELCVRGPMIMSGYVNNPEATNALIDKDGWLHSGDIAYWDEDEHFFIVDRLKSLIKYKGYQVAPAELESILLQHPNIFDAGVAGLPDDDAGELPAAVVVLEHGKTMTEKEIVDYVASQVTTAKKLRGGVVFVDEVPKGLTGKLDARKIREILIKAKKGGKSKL

| SMILES | Potency |
| --- | --- |
| Cc1cc(N2C(=O)Cc3ccccc3C2=O)ccc1C(C)C | inconclusive: 13.5 µM [inhibitor, partial curve, poor fit] |
| C=CCn1c(NC(=O)c2ccc(Br)o2)c(C(=O)OCC)sc1=S | inconclusive: 21.3 µM [inhibitor, partial curve, poor fit] |
| COC(=O)c1c(NC(=O)/C(C#N)=C/c2ccc(OC)cc2)sc2c1CCC2 | inactive |
| Fc1ccccc1/C=N/Nc1nc(-c2ccccn2)nc2ccccc12 | active: 9.53 µM |
| CCN(Cc1ccccc1)S(=O)(=O)c1cc(C(=O)O)ccc1OC | inconclusive: 21.3 µM [inhibitor, partial curve] |
| CCc1cc2c(=O)oc(-c3ccc(Br)cc3)nc2s1 | active: 6.01 µM |
| O=C(Cc1ccc(S(=O)(=O)N2CCOCC2)s1)Nc1ccc2c(c1)CCC2 | inconclusive: 21.3 µM [inhibitor, partial curve, poor fit] |
| Cc1cc(C(=O)Nc2ccccc2C(=O)O)ccc1NC(=O)COc1cccc(C)c1C | active: 6.01 µM |
| Cn1cc(C(=O)N/N=C/C(Br)=C/c2ccccc2)ccc1=O | active: 19 µM |
| COc1ccccc1CN1CCN(Cc2nc(-c3cccs3)no2)CC1 | inconclusive: 37.9 µM [inhibitor, single point] |
| Cc1cc(C)cc(N(CCC#N)C(=O)COC(=O)C2CCN(c3ccc(C(F)(F)F)cn3)CC2)c1 | inactive |
| COc1cccc(-c2cc(C(=O)NCCCn3ccnc3)c3ccccc3n2)c1 | inconclusive: 26.9 µM [inhibitor, single point] |
| CN(C)C(=O)c1cc(C(=O)c2ccccc2F)c[nH]1 | inconclusive: 37.9 µM [inhibitor, partial curve, poor fit] |
| CCc1ccc(OCC(=O)c2c(O)c3ccccc3oc2=O)cc1 | inconclusive: 21.3 µM [inhibitor, single point] |
| CCc1nc2oc3ccc(C)cc3c(=O)c2cc1C(=O)OC | active: 3.01 µM |
| O=C(O)CCCN1C(=O)/C(=C\c2ccco2)SC1=S | inconclusive: 26.9 µM [inhibitor, partial curve, poor fit] |
| COC(=O)N/N=C/c1ccc(-c2ccc(C)c(Cl)c2)o1 | inconclusive: 10.7 µM [inhibitor, partial curve, poor fit] |
| CCCSc1nc(O)c(C(c2ccc(OC)c(O)c2)c2c(O)nc(SCCC)n(C)c2=O)c(=O)n1C | inconclusive: 33.8 µM [inhibitor, single point] |
| O=C(Nc1ccc(O)c(-c2nc3ccccc3s2)c1)c1cccs1 | inconclusive: 5.36 µM [inhibitor, partial curve, poor fit] |
| COc1c(Cl)cc(C(=O)N(Cc2ccccc2F)C2CCS(=O)(=O)C2)cc1Cl (stereo unspecified) | inactive |
| COc1ccc(NS(=O)(=O)c2cccc(C(=O)OCC(=O)N3CCN(c4ccc(OC)cc4)CC3)c2)cc1 | inactive |
| Cc1ccc(-n2nc3c(=O)n(CC(=O)NCCc4ccccc4C)nc(C)c3c2C)cc1 | inactive |
| Cc1ccc(-c2nn(-c3ccccc3)cc2/C=C/C(=O)OCC(=O)NC2CC2)o1 | inactive |
| CCC(=O)N1CCc2cc(-c3csc(NC(=O)c4ccco4)n3)ccc21 | inconclusive: 6.75 µM [inhibitor, partial curve] |

| SMILES | Potency |
| --- | --- |
| Cc1ccc(OCC(=O)O/N=C(\N)c2ccncc2)cc1C | inconclusive: 37.9 µM [inhibitor, single point] |
| C/C(=C\C(=O)c1ccc(Br)cc1)Nc1ccc(Cl)cc1 | active: 26.9 µM |
| CCCC(=O)Nc1sc(C(=O)Nc2cccc(N)c2)c(C)c1C(=O)OC | active: 13.5 µM |
| Cc1ccc(OCc2nnc(SCc3nc4ccccc4[nH]3)n2Cc2ccco2)cc1 | inconclusive: 23.9 µM [inhibitor, partial curve, poor fit] |
| CC(C)CN1CCc2nc(Nc3ccc(F)cc3F)ncc2C1 | inconclusive: 37.9 µM [inhibitor, single point] |
| CCOC(=O)c1cnc(NCc2ccccc2)nc1C | inconclusive: 30.1 µM [inhibitor, single point] |
| Cc1cccn2c(Nc3ccccc3)c(-c3cccs3)nc12 | inconclusive: 26.9 µM [inhibitor, single point] |
| Cc1[nH]c2ccccc2c1C(c1ccccc1)c1ccc(Cl)s1 (stereo unspecified) | inactive |
| CC1CN(C(=O)c2ccn(C)n2)CC(C)O1 (stereo unspecified) | inactive |
| O=C(O)Cc1sc(-c2ccccc2Cl)nc1-c1ccccc1 | active: 23.9 µM |
| Cc1ccc(C(=O)NCC(=O)OCC(=O)Nc2cc(C)c(C)cc2[N+](=O)[O-])cc1 | inconclusive: 37.9 µM [inhibitor, partial curve, poor fit] |
| Cc1ccc(NC(=O)CSc2nnc(NC(=O)c3ccc(S(=O)(=O)N4CCOCC4)cc3)s2)cc1 | active: 2.69 µM |
| COc1ccc(Oc2coc3cc(O)ccc3c2=O)cc1 | inconclusive: 33.8 µM [inhibitor, partial curve, poor fit] |
| Cc1nn(-c2ccccc2)c(Cl)c1C(=O)NNC(=O)c1ccccc1O | inconclusive: 21.3 µM [inhibitor, single point] |
| O=C(COc1ccc(Cl)cc1Cl)NNC(=S)NCc1ccco1 | inconclusive: 33.8 µM [inhibitor, partial curve, poor fit] |
| Clc1ccc(OCCCN2CCc3ccccc3C2)c(Br)c1 | inconclusive: 23.9 µM [inhibitor, single point] |
| CCOC(=O)C1CCC(CN(Cc2ccc(Cl)cc2)S(=O)(=O)c2cc(Cl)cc(Cl)c2)CC1 (stereo unspecified) | inactive |
| CC(C)(C)c1ccc(C(=O)NCCc2ccccc2)cc1 | active: 0.757 µM |
| COC(=O)c1c(N2C(=O)Nc3ccccc3N2O)sc2c1CCCC2 | inconclusive: 37.9 µM [inhibitor, single point] |
| COC(=O)c1cc(C(=O)Nc2ccc(S(N)(=O)=O)cc2)cc([N+](=O)[O-])c1 | inactive |
| CC(C)CN1CCC(=O)N([C@H](CSc2ccc(Br)cc2)c2ccccc2)CC1 | inconclusive: 26.9 µM [inhibitor, partial curve, poor fit] |
| NS(=O)(=O)c1ccc(CCNC(=O)CNCCc2ccc(C(F)(F)F)cc2)cc1 | inactive |
| COc1ccc([N+](=O)[O-])cc1NC(=O)Cc1noc2ccccc12 | inactive |
| O=C(/C=C1\SC(=O)NC1=O)Nc1ccc(F)cc1 | inconclusive: 37.9 µM [inhibitor, single point] |

| SMILES | Potency |
| --- | --- |
| COC(=O)c1ccccc1NC(=S)NC(=O)c1ccc(C)cc1 | inconclusive: 37.9 µM [inhibitor, single point] |
| CC(=O)N1CCN(C(=O)c2cc3ccccc3o2)CC1 | inactive |
| CC(C)c1nc2ccc(C(=O)NCCCN3CCN(c4cccc(Cl)c4)CC3)cc2o1 | inactive |
| CN1CCc2c(sc(NC(=O)c3cc4cc([N+](=O)[O-])ccc4s3)c2C(N)=O)C1 | inconclusive: 30.1 µM [inhibitor, partial curve, poor fit] |
| Brc1ccc(OCc2cn3ccccc3n2)cc1 | active: 2.69 µM |
| CCN1CCN(c2ccc(NC(=O)c3ccc4c(c3)OCO4)cc2)CC1 | active: 16.9 µM |
| c1cnc(N2CCN(c3ncnc4c3oc3ccccc34)CC2)nc1 | inactive |
| Cc1ccc(S(=O)(=O)N2CCOCC2)cc1NC(=O)COc1ccc(C(=O)c2ccccc2)cc1 | inconclusive: 37.9 µM [inhibitor, partial curve, poor fit] |
| COc1ccc(CNC(=O)Cc2cccs2)cc1 | inconclusive: 26.9 µM [inhibitor, partial curve, poor fit] |
| Cn1nc(-c2ccccc2)c2cc(C(=O)O)sc21 | inconclusive: 30.1 µM [inhibitor, single point] |
| O=C(Nc1cccc(S(=O)(=O)NC2=NCCCCC2)c1)c1ccc(Cl)cc1 | inconclusive: 26.9 µM [inhibitor, partial curve, poor fit] |
| Cc1cc(NC(=O)c2cccs2)no1 | inconclusive: 26.9 µM [inhibitor, partial curve, poor fit] |
| COc1cc(Nc2nc3ccccc3n3nnnc23)cc(OC)c1OC | inconclusive: 21.3 µM [inhibitor, partial curve, poor fit] |
| CN(C)/C=C1\C=C2C(=O)c3ccccc3N2C1=O | inconclusive: 21.3 µM [inhibitor, partial curve, poor fit] |
| CN(C(=O)COC(=O)/C=C/c1ccc(C(F)(F)F)cc1)c1c(N)n(Cc2ccccc2)c(=O)[nH]c1=O | inactive |
| CN1CCN(NC(=O)c2cc(-c3cccc(Cl)c3)nc3ccccc23)CC1 | inactive |
| Cc1ccc(NC(=O)C2=NNC(=O)CC2)cc1F | inconclusive: 26.9 µM [inhibitor, single point] |
| Cc1ccccc1CNC(=O)c1cccc(NC(=O)N2CCSc3ncccc32)c1 | inactive |
| O=c1oc2ccccc2nc1/C=C(\O)c1ccccc1 | inconclusive: 26.9 µM [inhibitor, single point] |
| CCc1ccc(OCC(=O)NNC(=O)CSc2nnc(-c3ccc(C)cc3)n2C)cc1 | inconclusive: 2.39 µM [inhibitor, full curve] |
| S=c1nn[nH]n1C12CC3CC(CC(C3)C1)C2 | inconclusive: 37.9 µM [inhibitor, partial curve, poor fit] |
| CC(C)CNC(=O)c1ccccc1NC(=O)c1ccc(CSc2ccccc2)cc1 | inconclusive: 26.9 µM [inhibitor, partial curve, poor fit] |
| COc1ccc(C(=O)NCCc2ccccc2)cc1[N+](=O)[O-] | inconclusive: 33.8 µM [inhibitor, partial curve, poor fit] |
